Test results reported in the supplement of paper PMC4967469.
By IC50 is meant the dose at which the fit gives 50% viability; a fit beyond the top or the lowest dose is shown as a bound at that dose. For AUC the same curve is integrated over the 256-fold range of doses and scaled to a fraction; values near 1 show little effect. For part of these data: An inferred top dose was derived from the fitted curves, not read from the paper. For part of these data: An entry number marks a drug with two screens in the source, which often give different values.

Experiments:
Experiment in all cases: Viability of human cancer cell lines after 72 h of drug (GDSC screen)
5-Fluorouracil = compound: O=c1[nH]cc(F)c(=O)[nH]1 [5-Fluorouracil]; settings: top dose 32 µM; top dose inferred
Method: (§1)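 Human cancer cell lines in 384-well plates, medium with 10% serum, drug for 72 h over a 256-fold dose range (nine 2-fold or five 4-fold steps up to the top dose). Adherent lines were fixed and stained with the nucleic acid dye Syto60, suspension lines read with resazurin; signal relative to control wells, capped at 0 and 100%. One two-parameter sigmoid per drug and line, fitted in a mixed model over all curves with the slope shared within a line.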

QS11 = compound: OC[C@H](Cc1ccccc1)Nc1nc(Oc2ccc3c(c2)CCC3)nc2c1ncn2Cc1ccc(-c2ccccc2)cc1 [QS11]; settings: top dose 10.24 µM
Method: as §1

AC220 = compound: CC(C)(C)c1cc(NC(=O)Nc2ccc(-c3cn4c(n3)sc3cc(OCCN5CCOCC5)ccc34)cc2)no1 [AC220]; settings: top dose 1.024 µM; top dose inferred
Method: as §1

JNK-9L = compound: Fc1cc(-c2ccnc(Nc3ccc(-n4cnc(N5CCOCC5)n4)cc3)n2)cc(N2CCOCC2)c1 [JNK-9L]; settings: top dose 5.12 µM; top dose inferred
Method: as §1

OSU-03012 = compound: NCC(=O)Nc1ccc(-n2nc(C(F)(F)F)cc2-c2ccc3c(ccc4ccccc43)c2)cc1 [OSU-03012]; settings: top dose 16 µM; top dose inferred
Method: as §1

RDEA119 = compound: COc1cc(F)c(F)c(Nc2ccc(I)cc2F)c1NS(=O)(=O)C1(C[C@H](O)CO)CC1 [RDEA119]; settings: top dose 5 µM, top dose inferred
Method: as §1

CUDC-101 = compound: C#Cc1cccc(Nc2ncnc3cc(OC)c(OCCCCCCC(=O)NO)cc23)c1 [CUDC-101]; settings: top dose 5.12 µM; top dose inferred
Method: as §1

Cell Line	AUC (5-Fluorouracil)	IC50 (5-Fluorouracil) [µM]	AUC (QS11)	IC50 (QS11) [µM]	AUC (AC220)	IC50 (AC220) [µM]	AUC (JNK-9L)	IC50 (JNK-9L) [µM]	AUC (OSU-03012)	IC50 (OSU-03012) [µM]	AUC (RDEA119; screen: GDSC drug entry 1014)	IC50 (RDEA119; screen: GDSC drug entry 1014) [µM]	AUC (CUDC-101)	IC50 (CUDC-101) [µM]	AUC (RDEA119; screen: GDSC drug entry 1526)	IC50 (RDEA119; screen: GDSC drug entry 1526) [µM]
GCIY (stomach, adherent)	0.915	> 32	0.862	> 10.2	0.984	> 1.02	0.388	0.151	0.728	4.9	0.681	1.07	0.606	0.65	–	–
GCT (soft tissue, adherent)	0.989	> 32	0.989	> 10.2	0.989	> 1.02	0.467	0.263	0.882	14.9	–	–	0.933	> 5.12	0.919	> 5
GI-1 (glioma, adherent)	0.81	16	0.802	4.8	0.986	> 1.02	0.456	0.245	0.798	7.24	0.929	> 5	0.455	0.242	0.933	> 5
GI-ME-N (neuroblastoma, adherent)	0.732	11.9	0.977	> 10.2	0.939	> 1.02	0.607	0.702	0.863	> 16	0.702	1.44	0.415	0.172	0.677	1.17
GMS-10 (glioma, adherent)	0.984	> 32	0.96	> 10.2	0.988	> 1.02	0.619	0.677	0.889	> 16	0.845	3.58	0.855	4.02	0.829	3.07
GOTO (neuroblastoma, adherent)	0.523	2.34	0.825	7.3	0.983	> 1.02	0.645	0.854	0.815	10.4	0.967	> 5	0.487	0.294	0.964	> 5
GP5d (large intestine, adherent)	0.909	> 32	0.984	> 10.2	0.948	> 1.02	0.526	0.374	0.785	6.11	–	–	0.586	0.534	0.877	4.12
GR-ST (lymphoblastic leukaemia, suspension)	0.814	22.2	0.799	6.12	0.946	> 1.02	0.632	0.801	0.537	1.29	0.981	> 5	0.449	0.225	0.967	> 5
GRANTA-519 (B-cell lymphoma, suspension)	0.877	26.6	0.941	> 10.2	0.987	> 1.02	0.723	1.27	0.702	3.45	0.985	> 5	0.717	1.22	–	–
GT3TKB (stomach, adherent)	0.974	> 32	0.901	> 10.2	0.99	> 1.02	0.401	0.177	0.759	4.97	0.91	> 5	0.648	0.779	0.646	0.753
H4 (glioma, adherent)	0.961	> 32	0.686	2.1	0.986	> 1.02	0.563	0.475	0.482	0.893	0.828	3.04	0.877	5.03	0.866	4.39
H9 (lymphoid neoplasm, suspension)	0.984	> 32	0.862	6.34	0.992	> 1.02	0.776	1.68	0.602	1.81	0.871	3.35	0.991	> 5.12	0.805	2.01
H513 (mesothelioma, semi-adherent)	0.972	> 32	0.986	> 10.2	0.973	> 1.02	0.837	4.54	0.842	15.1	0.947	> 5	0.933	> 5.12	0.904	> 5
H2369 (mesothelioma, adherent)	0.979	> 32	0.963	> 10.2	0.987	> 1.02	0.194	0.0379	0.703	3.8	0.892	> 5	0.706	1.25	0.895	> 5
H2373 (mesothelioma, adherent)	0.962	> 32	0.98	> 10.2	0.982	> 1.02	0.621	0.753	0.865	> 16	0.774	2.49	0.587	0.589	0.868	> 5
H2461 (mesothelioma, adherent)	0.979	> 32	0.983	> 10.2	0.979	> 1.02	0.682	1.19	0.865	> 16	0.907	> 5	0.735	1.8	0.853	> 5
H2591 (mesothelioma, adherent)	0.921	> 32	0.982	> 10.2	0.98	> 1.02	0.631	0.821	0.86	> 16	0.73	1.75	0.787	2.98	0.921	> 5
